Data reported in paper PMC11142307.
Positions count from the first letter of the chain named. Results are given in words; binding and its absence hold for the method and conditions named. In cells and extracts the contact can be indirect. Some binding calls cover weakened binding; strength is not graded here. One block for each molecule: values may come before it.

Chains of the proteins cited; added tags and fusions are not shown.
UniProt P22216: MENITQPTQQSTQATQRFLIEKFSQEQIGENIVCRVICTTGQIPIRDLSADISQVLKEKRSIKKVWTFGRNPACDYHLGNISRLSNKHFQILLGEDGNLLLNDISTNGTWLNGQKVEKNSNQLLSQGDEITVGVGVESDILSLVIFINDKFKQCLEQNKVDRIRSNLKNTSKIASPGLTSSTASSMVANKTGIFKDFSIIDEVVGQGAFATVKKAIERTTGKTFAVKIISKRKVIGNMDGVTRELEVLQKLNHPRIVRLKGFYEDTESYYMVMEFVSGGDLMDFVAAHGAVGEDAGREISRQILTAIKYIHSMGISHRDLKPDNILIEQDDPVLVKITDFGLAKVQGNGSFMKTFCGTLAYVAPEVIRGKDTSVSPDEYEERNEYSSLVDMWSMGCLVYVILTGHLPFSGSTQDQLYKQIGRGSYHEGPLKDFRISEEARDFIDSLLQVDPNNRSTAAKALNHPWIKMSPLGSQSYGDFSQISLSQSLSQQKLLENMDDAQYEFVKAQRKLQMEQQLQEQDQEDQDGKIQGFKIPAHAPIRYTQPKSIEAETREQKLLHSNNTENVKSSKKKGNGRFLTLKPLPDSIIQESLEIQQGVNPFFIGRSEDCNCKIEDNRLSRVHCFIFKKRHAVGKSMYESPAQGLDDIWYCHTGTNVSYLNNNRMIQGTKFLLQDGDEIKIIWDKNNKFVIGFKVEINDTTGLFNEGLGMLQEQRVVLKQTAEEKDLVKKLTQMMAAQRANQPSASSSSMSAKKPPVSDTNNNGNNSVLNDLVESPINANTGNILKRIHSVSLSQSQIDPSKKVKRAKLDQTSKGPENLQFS
UniProt P32447: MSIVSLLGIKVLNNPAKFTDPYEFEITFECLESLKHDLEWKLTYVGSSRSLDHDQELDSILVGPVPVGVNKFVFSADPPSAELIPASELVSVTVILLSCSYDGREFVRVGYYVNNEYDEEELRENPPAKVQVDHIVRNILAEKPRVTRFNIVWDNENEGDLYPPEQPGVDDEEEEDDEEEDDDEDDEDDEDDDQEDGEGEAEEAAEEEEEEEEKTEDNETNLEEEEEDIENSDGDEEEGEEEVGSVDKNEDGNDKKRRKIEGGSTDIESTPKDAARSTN

Legend:
[1] = biological target: Rad53 (budding yeast (endogenous locus, W303 derivative)) (UniProt P22216); experiment: co-IP; yeast whole-cell extract incubated with anti-Flag or anti-HA beads for 2 h at 4°C; lysis buffer 20 mM HEPES-KOH pH 7.5, 100 mM KOAc, 1% Triton X-100, 2 mM Mg(OAc)2; wild-type and mms22^RIM cells, normal growth and MMS-treated
[2] = biological target: T1, Rtt107 (budding yeast (endogenous locus, W303 derivative)) (UniProt P38850); experiment: as above
T1 sequence: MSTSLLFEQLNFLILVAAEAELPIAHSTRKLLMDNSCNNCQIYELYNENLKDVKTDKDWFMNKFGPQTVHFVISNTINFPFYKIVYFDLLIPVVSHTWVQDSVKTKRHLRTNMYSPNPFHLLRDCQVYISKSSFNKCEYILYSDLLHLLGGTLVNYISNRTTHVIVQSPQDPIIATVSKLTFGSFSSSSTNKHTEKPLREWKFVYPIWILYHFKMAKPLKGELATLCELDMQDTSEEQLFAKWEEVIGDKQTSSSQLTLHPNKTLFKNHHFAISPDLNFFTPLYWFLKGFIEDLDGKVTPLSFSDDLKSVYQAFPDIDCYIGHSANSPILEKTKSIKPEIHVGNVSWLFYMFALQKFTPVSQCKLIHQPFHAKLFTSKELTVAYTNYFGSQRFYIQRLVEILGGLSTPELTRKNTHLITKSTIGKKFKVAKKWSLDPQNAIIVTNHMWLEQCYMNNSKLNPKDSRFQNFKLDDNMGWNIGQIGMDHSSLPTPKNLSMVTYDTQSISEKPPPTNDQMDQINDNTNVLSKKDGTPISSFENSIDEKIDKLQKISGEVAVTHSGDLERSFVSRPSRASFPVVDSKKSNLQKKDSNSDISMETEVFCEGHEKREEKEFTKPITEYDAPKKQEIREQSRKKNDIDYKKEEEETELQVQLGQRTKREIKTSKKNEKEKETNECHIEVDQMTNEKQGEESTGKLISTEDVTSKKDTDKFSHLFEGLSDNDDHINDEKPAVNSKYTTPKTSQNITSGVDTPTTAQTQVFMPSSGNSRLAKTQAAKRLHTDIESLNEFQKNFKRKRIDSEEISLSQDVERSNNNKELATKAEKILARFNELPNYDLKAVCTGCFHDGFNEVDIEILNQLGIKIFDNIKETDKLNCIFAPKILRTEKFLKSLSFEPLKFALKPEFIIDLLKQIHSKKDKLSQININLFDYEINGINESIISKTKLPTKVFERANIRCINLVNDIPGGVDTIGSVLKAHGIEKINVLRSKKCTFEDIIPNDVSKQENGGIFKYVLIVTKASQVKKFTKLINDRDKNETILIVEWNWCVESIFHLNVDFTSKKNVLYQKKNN

binding [1]: binds
Molecule: Asf1 (from UniProt P32447 1-279)

binding [2]: binds
B1: Mms22 (protein, UniProt Q06164 1-1454)
chain: MDVDEPNPIVISDSEATDEEISIIYEPEFNENYLWAEENVQEASRSQKIVTERLSLDSTAGESCTPSVVTDTQVTTGLRWSLRKRKAIQKMPYSLERIKHRQLLEGYDISSFDSISNQLTLPKNASTVIHSNDILLTKRTGKPLDEQKDVTIDSIKPENSSVQSQRYDSDEEIPKKRHRTFKDLDQDIVFQSGDSTEDEQDLASTNLQNTQNDEVIFRGRVLNVRTGYRGVLPRVAWEKSLQKQQSSKVTKRKTQLLNHKGVAKRKMNRSAHIEDEEQNLLNDLIAPDDELDIEENAPPDIYLGNLPEDREANEKELKELQEYYESKYSEDAQSAGTSGFNLNEEYRNEPVYELEYDGPGSCISHVSYKDQPIIYLNSRHSDSGFSEQYNISAEDNQSVISLDAAEEHNDGIIDKMLVKPKRIKATNDANFLNTKSKRVRRYKYKYRNSCLAPSTKAIKVGKRSAHKSHLAANNPVSFVSKKNHVIDDYFFEELESQSLEQDDSSSLKPQKKRRKKKAPIYSSFSADLESRRKPVFNTVVEVPTNRYAFTKPNVRNRDSINHDMEFEEEDSNQELGPIMVVLDSILLKKPFEPPNFFKIQLSDKSFLLSKLNPADIATSLQKIFRVIIDKGITDTELVHFNESLIAFLVHLDMPELFDLIGEFHREFRSKVNSLRKKAKPIHFFQIAACQLMFLEISRYNKISAAAKFDMDVKLLDHIVSFFKLLSVCYDSVMKNPMQYLYTSYYILSAVVDVIHKKEALWDLFQKHPFSPHISLLLVNIFPTKVCRWQVLRLDSEFQPLSSAFRFINYCIETCNWNVTNSLILSLDRIFKRRRFSDFEEESDLSQNNKIIYPPTNQLTSRLMFNRYLHLLTLCELSSSDTQRVIPMGDISMNDSLSVLKNRLNLLIVLATRFDLNLEKRFQELTRPLYSKEYLNLHTQNTVRTITTLIMQASLSFLEISRIKNHPFSGKFIASLFDKLVLQQPSISGVTENFLKEFTNLVSKMKRKSVSMLKFLYPSLVAMSQENIFESSFFLLLQVYLKSLDVLGPTWVQNYLFQFIKSKAQENERWIECYCQIGKFLVDSGIFTWWTFFTYNGLDAALHFQLAFHSLIIDFCDTDSFELLKKPLYSIASDLLLISKDDAFYHFLSNLLKRAHIIVADLKPVSDENELLRLAYIFSKALKKNAYQDLLAVFLSLAKKHYDEGDISRNFLAKYLEFLNKNCLTELRNNQLFISLRRELGISSDEDEKCAFWDSFNEAGDILSKAAFVETGIVQACCTGNEIDGYLDNLSTLFTSTMLESPFAFFSDLVIAHIFENRPFFDVNIKNFLLSHFIDLFNKVLKMKFEQVSPDEFAELCKVYRALCIECATDDTFNSNSDLIAAKDAFLVSVLRIADGFWEHDKLLQLRMLDSNMNIPNQIPHTTLQSSLSAIVIKIIESNIGKIEASEPFKTFKNT

binding [2]: no binding
B2: Mms22 with alanine substitution of D13 and Y33 in the Rtt107-interaction-motif (mms22^RIM) (protein, UniProt Q06164 1-1454)
chain: B1 chain with D13A, Y33A

binding [2]: binds
B3: Dpb11 (protein, UniProt P47027 1-764)
chain: MKPFQGITFCPTAINNEILAKKISKKIIKLGGIFSKDLTRQVNVLVVGSTTNTNKFKFAVKHRFDIIFIDIQAIDDIYQLWLSGENILPDSNTATMTGSTYEMLKILYRRFSFKYLHNFNIFIGRITDTNITSIDSLVRSIKKLGCSSYNYQNFVIKDTSSHNDDDDQGQNGQISIFVTDTLLGARVNAAIEQNIPIVHFKWILDCQKRSALLPYDPYYLLPNIKDLPYDSIGSNSCDCWDKINTTFPTNIDAQSSLQRQQSSSTLTPSLPKTSSLLNKFKPKGEKIWDKAMSLQQHSKTNFSVLGQSPLSINNKQEDLSDNSTLIFKNCAFIIHHIFPGNHRSILTKIVVQNGGKIETSYLSGIYDHSYYIIPSNKALDSFNDLPEIIDDNDGIVTEFFIERCLYYQKLLHPIDLWSKPFLSTIEFQVSSSSKLLHHEFSSSPFLNVTITGFSGVELLHLTKVLNLLKPMGINYVEYLNKSTDILLINLAALPSIPKTHPLWSNEFSDLFTQFCINNNNDDPGDNNRKDFQNNSILRNSMKRKIEYIKKFHSIPVVTPAFIFKLLSAASGENNEIFLNNIKWCIICPRGHKDDFKCKIKKPYYTSISSEKKYQNNDPKIDKTILLKRNNSSLSEHSMKDTKNELLQKIRETDSGRKKRSVSSSIMDVSSERQMPDTKRIKLESLPKNFVPKQIKRTTSWGTIMSENVPTEQPTAISNPEEIPRTEEVSHTQVTYGSIQDKKRTASLEKPMRRQTRNQTKELDS
